The other results are listed elsewhere or left out. At the low end of the ranking the order means little.

The experiment deals with GST-SBP-SLBP (stem-loop binding protein) (UniProt Q14493). The experiment is described as follows: targeted RNA Bind-n-Seq.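 Further: DESeq read counts versus GST-SBP nonspecific binding control pulldown.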 The conditions noted are these: RBNS binding buffer: 25 mM Tris pH 7.5, 150 mM KCl, 3 mM MgCl2, 0.1% Tween, 0.5 mg/mL BSA, 1 mM DTT; 27 nM protein, 750 pM RNA pool; temperature not stated; high values mean tight binding.
On to “GGUCACGUCUCAAUCAACUCUUCUUCCAGGGAAAUCCCUGGCUAUGUCAACAGCUCGCAGUCAAG”, for which the binding signal (log2 fold change) was -0.0381. Under “GGUCACGUCUCAAUCAACUCAAUUUCAGGAGUUUACUCCUGCAUAGUCAACAGCUCGCAGUCAAG” stands 0.0665; under “GGUCACGUCUCAAUCAACUCAUUUUCCAGGGAAAACCCUGGCUAACUCAACAGCUCGCAGUCAAG”, -0.0189. Regarding “GGUCACGUCUCAAUCAACUCAUCUUCCAGGGAAAACCCUGGCUUACUCAACAGCUCGCAGUCAAG”, the binding signal (log2 fold change) is -0.0839. For “GGUCACGUCUCAAUCAACUCACAAGAGGGGGGGAAAACCCCUUUACCCUCACAUUCAACAGCUCGCAGUCAAG”, the binding signal (log2 fold change) is 0.0506. On to “GGUCACGUCUCAAUCAACUCAGUUUCAGGAGUUUUCUCCUGCUAUCUCAACAGCUCGCAGUCAAG”, for which the binding signal (log2 fold change) stood at 0.0785.

As to “GGUCACGUCUCAAUCAACUCUUCCUCAGGAGUUUCCUCCUGUUUUCUCAACAGCUCGCAGUCAAG”, the binding signal (log2 fold change) is -0.0909. To “GGUCACGUCUCAAUCAACUCAAGGUCAGGAGUUUUCUCCUGUAAAUUCAACAGCUCGCAGUCAAG” belongs -0.0085. Under “GGUCACGUCUCAAUCAACUCCUUAGAGGGGGGGAAAACCCCUUUGCCCUCAUCGUCAACAGCUCGCAGUCAAG” stands -0.458; under “GGUCACGUCUCAAUCAACUCAUCCCCCAGGGAAACCCCUGGUAUAUUCAACAGCUCGCAGUCAAG”, -0.129. Take “GGUCACGUCUCAAUCAACUCAAUCCCAGGAGUUUGCUCCUGCUUACUCAACAGCUCGCAGUCAAG”: the binding signal (log2 fold change) is 0.228. Turning to “GGUCACGUCUCAAUCAACUCAACUCCCAGGGAAAGCCCUGGCAUUUUCAACAGCUCGCAGUCAAG”, the binding signal (log2 fold change) worked out at 0.127. “GGUCACGUCUCAAUCAACUCUAUCCCCAGGGAAAACCCUGGCUAUCUCAACAGCUCGCAGUCAAG”: the binding signal (log2 fold change) was found to be 0.336. With “GGUCACGUCUCAAUCAACUCUAUGUCCAGGGAAACCCCUGGUUUUUUCAACAGCUCGCAGUCAAG”, the binding signal (log2 fold change) was -0.196. Under “GGUCACGUCUCAAUCAACUCAAUCUCAGGAGUUUGCUCCUGUAAUCUCAACAGCUCGCAGUCAAG” stands -0.0473.

With “GGUCACGUCUCAAUCAACUCAACUCCCAGGGAAACCCCUGGCAUAUUCAACAGCUCGCAGUCAAG”, the binding signal (log2 fold change) is -0.000501. As to “GGUCACGUCUCAAUCAACUCAUUCCCAGGAGUUUACUCCUGCAUUUUCAACAGCUCGCAGUCAAG”, the binding signal (log2 fold change) was -0.0691. Under “GGUCACGUCUCAAUCAACUCAAUCUCCAGGGAAAGCCCUGGCAAAGUCAACAGCUCGCAGUCAAG” stands 0.167; under “GGUCACGUCUCAAUCAACUCUAUCCCAGGAGUUUUCUCCUGCAUUCUCAACAGCUCGCAGUCAAG”, -0.0104; under “GGUCACGUCUCAAUCAACUCAUUUCCAGGAGUUUCCUCCUGCAAUCUCAACAGCUCGCAGUCAAG”, 0.0779. To “GGUCACGUCUCAAUCAACUCAAUCUCCAGGGAAAUCCCUGGCUAUUUCAACAGCUCGCAGUCAAG” belongs -0.109; to “GGUCACGUCUCAAUCAACUCAUCCCCAGGAGUUUCCUCCUGUUUUUUCAACAGCUCGCAGUCAAG”, -0.0869. On to “GGUCACGUCUCAAUCAACUCAAUCGCAGGAGUUUCCUCCUGGUUUCUCAACAGCUCGCAGUCAAG”, for which the binding signal (log2 fold change) was determined as 0.133. With “GGUCACGUCUCAAUCAACUCAAUUUCCAGGGAAACCCCUGGCUUAUUCAACAGCUCGCAGUCAAG”, the binding signal (log2 fold change) is -0.246. Regarding “GGUCACGUCUCAAUCAACUCUUCGGAGGGGGGGAAAACCCCUUUACCCUCAUUCUCAACAGCUCGCAGUCAAG”, the binding signal (log2 fold change) was -0.425. To “GGUCACGUCUCAAUCAACUCUUCGUCCAGGGAAAACCCUGGCUUUUUCAACAGCUCGCAGUCAAG” belongs -0.102.

As to “GGUCACGUCUCAAUCAACUCAACUUCCAGGGAAAACCCUGGCAAUCUCAACAGCUCGCAGUCAAG”, the binding signal (log2 fold change) is -0.139. To “GGUCACGUCUCAAUCAACUCUACUCCAGGAGUUUCCUCCUGUUUUUUCAACAGCUCGCAGUCAAG” belongs -0.129; to “GGUCACGUCUCAAUCAACUCAACUCCCAGGGAAAUCCCUGGUUAAUUCAACAGCUCGCAGUCAAG”, 0.133. To “GGUCACGUCUCAAUCAACUCAACUCCCAGGGAAACCCCUGGCUAACUCAACAGCUCGCAGUCAAG” belongs -0.0607.

As for “GGUCACGUCUCAAUCAACUCUUCGUCCAGGGAAAACCCUGGUUUUCUCAACAGCUCGCAGUCAAG”, the binding signal (log2 fold change) amounted to 0.335. As for “GGUCACGUCUCAAUCAACUCUUCAGAGGGGGGGAAAACCCCUUUGCCCUCAAUCUCAACAGCUCGCAGUCAAG”, the binding signal (log2 fold change) is -0.526. To “GGUCACGUCUCAAUCAACUCCUCAGAGGGGGGGAAAACCCCUUUACCCUCACCUUCAACAGCUCGCAGUCAAG” belongs -0.104; to “GGUCACGUCUCAAUCAACUCCACAGAGGGGGGGAAAACCCCUUUGCCCUCCACAUCAACAGCUCGCAGUCAAG”, -0.247. As to “GGUCACGUCUCAAUCAACUCUUUCUCCAGGGAAAGCCCUGGUUAUGUCAACAGCUCGCAGUCAAG”, the binding signal (log2 fold change) is -0.127. Under “GGUCACGUCUCAAUCAACUCUUUUCCAGGAGUUUCCUCCUGCAAAUUCAACAGCUCGCAGUCAAG” stands -0.0502. For “GGUCACGUCUCAAUCAACUCAGUUUCCAGGGAAAACCCUGGUUUUUUCAACAGCUCGCAGUCAAG”, the binding signal (log2 fold change) is 0.201. To “GGUCACGUCUCAAUCAACUCAUCCUCCAGGGAAAGCCCUGGUUUUCUCAACAGCUCGCAGUCAAG” belongs 0.251; to “GGUCACGUCUCAAUCAACUCAAAGGAGGGGGGGAAAACCCCUUUACCCUCAAUCUCAACAGCUCGCAGUCAAG”, 0.116. For “GGUCACGUCUCAAUCAACUCAUCCCCAGGAGUUUCCUCCUGUUUAUUCAACAGCUCGCAGUCAAG”, the binding signal (log2 fold change) amounted to 0.0825. Under “GGUCACGUCUCAAUCAACUCAUCUUCCAGGGAAAGCCCUGGUUAACUCAACAGCUCGCAGUCAAG” stands -0.0611; under “GGUCACGUCUCAAUCAACUCAAUCUCAGGAGUUUUCUCCUGUAAACUCAACAGCUCGCAGUCAAG”, 0.0446; under “GGUCACGUCUCAAUCAACUCAUCAGAGGGGGGGAAAACCCCUUUACCCUCAUUUUCAACAGCUCGCAGUCAAG”, -0.257. In the case of “GGUCACGUCUCAAUCAACUCUUCGUCCAGGGAAAACCCUGGUUUUUUCAACAGCUCGCAGUCAAG”, the binding signal (log2 fold change) is -0.073. Turning to “GGUCACGUCUCAAUCAACUCUUUUCCCAGGGAAAACCCUGGCUUUUUCAACAGCUCGCAGUCAAG”, the binding signal (log2 fold change) was -0.221. For the sequence “GGUCACGUCUCAAUCAACUCUCUAGAGGGGGGGAAAACCCCUUUGCCCUCCUAAUCAACAGCUCGCAGUCAAG”, the binding signal (log2 fold change) came out at 0.118. With “GGUCACGUCUCAAUCAACUCUUUUUCCAGGGAAAUCCCUGGCUAUUUCAACAGCUCGCAGUCAAG”, the binding signal (log2 fold change) was -0.0451.

The record behind these values is PMC5892938.
